We go through 8 molecules from US20260216242A1 (ALMAC DISCOVERY, published 2026).

B1: B01-hFc (S239C) (Fc fusion)
chain: QVQLVESGGGLVQAGGSLRLSCEVTRSPMPIDTMAWYRQAPGRQRELVAIISRSGSTNYADSVKGRFTISRNDTKSTMYKSTMYLKMNTLELEDTGVYYCNAVGLWNGAEYWGQGTQVTVSSGGGGSGGGGSGGGGS[human IgG1 Fc with changes not spelt out]
notes: Built from parts; also called #341
B2: A06-hFc (S239C) (Fc fusion)
chain: QVHLVESGGGLVQAGGSLRLSCAASGRTFLSMGWFRQAPGKEREFVAAISWTGGSTGYADSVKGRFTISRESDKETMYLQMNSLKPEDTAVYYCAARGDVYYGGDDATRYKYWGQGTQVTVSSGGGGSGGGGSGGGGS[human IgG1 Fc with changes not spelt out]
notes: [G4S]3 linker; also called #340
B3: E10-hFc (S239C) (Fc fusion)
chain: QVQLVESGGGLVQAGGSLRLSCAVSGRALSDYNIGWFRQAPGKEREFVARKTWDGSSTRYDDSVKGRFTVSIEDAKNTAYLQMSSLKTEDTAVYYCAAGRYSRARGWEYDYWGQGTQVTVSSGGGGSGGGGSGGGGS[human IgG1 Fc with changes not spelt out]
notes: [G4S]3 linker; also called #435
B4: F05-hFc (S239C) (Fc fusion)
chain: QVQLVESGGGLVQAGGSLRLSCAASGRAFGDYNIGWFRQAPGKEREFVARRTWDGSSTRYDDSVKGRFTVSIDNAKNTAYLQMNSLKTEDTAVYYCAAGRYSRVRGWEYDYWGQGTQVTVSSGGGGSGGGGSGGGGS[human IgG1 Fc with changes not spelt out]
notes: [G4S]3 linker; also called #436
B5: D10-hFc (S239C) (Fc fusion)
chain: QVQLVESGGGLVQPGGSLRLSCAASGSIFSVNTMGWYRQAPGKQRDLVAVATSGGTIHYADSVKGRFTISRDNAKNTVYLQMNSLKPEDTAVYYCNLVVPYGMIAGDHDYWGQGTKVTVSSGGGGSGGGGSGGGGS[human IgG1 Fc with changes not spelt out]
notes: [G4S]3 linker
B6: E06-hFc (S239C) (Fc fusion)
chain: QVHLVESGGGLVQAGGSLRLSCAASRRSFSEYAMGWFRQAPGKEREFVAAIGWSGVIEYADSVKGRFTISRDNAKDTVYLQMNSLKPEDTAVYYCAAGLGIRVVSQTPAYWGQGTQVTVSSGGGGSGGGGSGGGGS[human IgG1 Fc with changes not spelt out]
notes: [G4S]3 linker
B7: D04-hFc (S239C) (Fc fusion)
chain: QVQLVESGGGLVQPGGSLRLSCAASESTFSINVMGWYRQAPGKQRELVATITSGDITNYADSVKGRFTISRDNAENTVYLRTNSLKPEDTAVYYCNARGEYHSGNEYDYWGQGTQVTVSSGGGGSGGGGSGGGGS[human IgG1 Fc with changes not spelt out]
notes: Built from parts; also called #371
B8: C07-hFc (S239C) (Fc fusion)
chain: QVQLVESGGGLVQAGESLRLACAASGTIFSGNAVGWYRQAPEKQREWVSSITDYGDTDYAEAVKGRFTISRDNAKNTVYLQMNSLKPEDTAVYYCYVYQRGESEEYWGQGTQVTVSSGGGGSGGGGSGGGGS[human IgG1 Fc with changes not spelt out]
notes: Built from parts

For one assay, the target named is T1, ALPI His homodimer (human, UniProt P09923 20-503).
T1 construct: Whole entry with His tag; used in ELISA and BLI; also called hALPI
T1 sequence: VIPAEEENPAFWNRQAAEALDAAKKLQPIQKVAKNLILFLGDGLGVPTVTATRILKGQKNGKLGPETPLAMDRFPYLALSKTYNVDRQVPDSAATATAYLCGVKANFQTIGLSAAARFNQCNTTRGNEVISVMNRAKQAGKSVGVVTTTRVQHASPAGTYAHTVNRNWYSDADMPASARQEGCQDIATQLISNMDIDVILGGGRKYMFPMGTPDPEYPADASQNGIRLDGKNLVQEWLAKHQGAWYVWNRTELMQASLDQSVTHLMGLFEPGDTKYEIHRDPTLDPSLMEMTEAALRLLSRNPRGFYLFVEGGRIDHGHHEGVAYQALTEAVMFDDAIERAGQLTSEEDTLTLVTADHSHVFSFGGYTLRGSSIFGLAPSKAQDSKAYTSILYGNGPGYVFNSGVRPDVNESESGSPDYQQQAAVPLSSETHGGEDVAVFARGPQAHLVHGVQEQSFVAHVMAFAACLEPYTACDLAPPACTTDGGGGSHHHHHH
As to the kind of experiment: BLI, antigen immobilised; very low response. How it is done:
(§1) Binding kinetics were determined using the Biolayer Interferometry (BLI) Octet K2 or R4 system (Sartorius). […] For KD apparent measurements, the ALPP proteins were immobilised in sodium acetate pH5 buffer to AR2G sensors using amine coupling. To measure 1:1 interactions, AHC biosensors were used to immobilise Fc-fused proteins. All assays were conducted in HBS-EP with a plate temperature of 25° C. Ka (M⁻¹s⁻¹), Kd (s⁻¹) and KD (nM) values were determined using Octet Data Analysis High Throughput software (Sartorius) for Biolayer Interferometry.
BLI data (Table 9) confirms the high affinity binding of VHH-hFc fusion proteins to ALPP and ALPPL2.
(In general: In BLI a coated tip is dipped into the sample, and binding shifts an interference pattern.)
Molecule B1 displayed a Kd of 148000 pM.

The target in another assay is T2, Mouse ALPPL2 (leucine zipper) (mouse).
T2 construct: Whole entry: cysteine-stabilised leucine zipper fusion; also called mALPPL2; NCBI #NP_031459
T2 chain: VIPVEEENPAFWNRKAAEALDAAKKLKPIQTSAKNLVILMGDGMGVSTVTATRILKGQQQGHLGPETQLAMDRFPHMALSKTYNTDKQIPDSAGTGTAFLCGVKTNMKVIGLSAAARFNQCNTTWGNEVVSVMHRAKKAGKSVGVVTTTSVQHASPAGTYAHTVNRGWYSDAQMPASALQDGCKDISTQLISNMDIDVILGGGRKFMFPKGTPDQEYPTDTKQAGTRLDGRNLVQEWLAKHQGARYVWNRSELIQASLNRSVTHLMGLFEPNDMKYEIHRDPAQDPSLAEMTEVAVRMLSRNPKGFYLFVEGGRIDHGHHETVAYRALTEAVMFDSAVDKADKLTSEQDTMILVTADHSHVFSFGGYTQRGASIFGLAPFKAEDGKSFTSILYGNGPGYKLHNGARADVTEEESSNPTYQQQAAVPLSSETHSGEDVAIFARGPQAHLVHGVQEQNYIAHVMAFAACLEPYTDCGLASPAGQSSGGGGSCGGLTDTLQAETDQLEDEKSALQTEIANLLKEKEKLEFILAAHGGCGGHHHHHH
Briefly: BLI, antigen immobilised, KD apparent.
As usually defined, the koff is a measure of how fast the partners let go of each other. As a reminder, the kon is a measure of how fast the partners come together. Consider B2, for which the Kd was 47 pM, the koff came to 1.82e-05 s⁻¹ and the kon stood at 392000 M⁻¹ s⁻¹.

With B3, the Kd is 2590 pM, the koff stood at 0.0042 s⁻¹ and the kon stood at 1.62e+06 M⁻¹ s⁻¹.

As for B4, the Kd stood at 720 pM, the off-rate (koff) was determined as 0.00228 s⁻¹ and the kon came to 3.91e+06 M⁻¹ s⁻¹.

Another assay concerns the target T3, Cynomolgus monkey ALPP (leucine zipper) (cynomolgus monkey).
T3 construct: Whole entry: cysteine-stabilised leucine zipper fusion; also called CynoALPP; NCBI #XP_045223825
T3 chain: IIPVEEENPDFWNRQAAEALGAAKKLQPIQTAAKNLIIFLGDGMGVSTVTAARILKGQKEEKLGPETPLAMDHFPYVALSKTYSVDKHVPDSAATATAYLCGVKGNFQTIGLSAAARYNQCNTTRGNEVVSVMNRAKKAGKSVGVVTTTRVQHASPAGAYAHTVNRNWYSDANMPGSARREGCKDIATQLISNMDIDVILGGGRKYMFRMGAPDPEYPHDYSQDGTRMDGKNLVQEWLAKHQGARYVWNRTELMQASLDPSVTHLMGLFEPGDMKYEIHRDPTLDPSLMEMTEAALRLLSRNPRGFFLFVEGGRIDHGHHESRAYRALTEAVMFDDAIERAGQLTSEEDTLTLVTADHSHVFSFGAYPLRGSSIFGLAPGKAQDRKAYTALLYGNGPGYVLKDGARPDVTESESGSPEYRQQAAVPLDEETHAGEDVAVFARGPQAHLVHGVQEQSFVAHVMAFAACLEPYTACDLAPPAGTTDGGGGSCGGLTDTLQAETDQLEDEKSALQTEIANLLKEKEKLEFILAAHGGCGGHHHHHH
Briefly: BLI, antigen immobilised, KD apparent.
Take B5: the Kd was under 10 pM, the koff is under 1e-07 s⁻¹ and the kon was 1.09e+06 M⁻¹ s⁻¹.

Consider B6, for which the Kd stood at 230 pM, the koff worked out at 0.00025 s⁻¹ and the kon was determined as 974000 M⁻¹ s⁻¹.

As for B2, the Kd was under 10 pM, the off-rate constant (koff) was under 1e-07 s⁻¹ and the kon amounted to 664000 M⁻¹ s⁻¹.

For the molecule B3, the Kd is under 10 pM, the koff was under 1e-07 s⁻¹ and the kon stood at 622000 M⁻¹ s⁻¹.

For the molecule B4, the Kd was under 10 pM, the koff is under 1e-07 s⁻¹ and the on-rate (kon) came to 106000 M⁻¹ s⁻¹.

The target of another assay is T2, Mouse ALPPL2 (leucine zipper). As to the kind of experiment: BLI, antigen immobilised. The method, then: as §1
To assess cross-species reactivity of the ALPP/ALPPL2 targeting VHH-hFc fusions, BLI was conducted using mouse ALPPL2 (NCBI #NP_031459), rhesus monkey ALPP (NCBI #XP_028687061) and cynomolgus monkey ALPP (NCBI #XP_045223825). […] BLI was conducted as described above.
In the case of B5, the binding result is recorded as “no binding”.

Turning to B1, the binding result is recorded as “no binding”.

For the molecule B7, the binding result is given as “no binding”.

On to B6, for which the binding result is given as “no binding”.

In the case of B8, the binding result is on record as “no binding”.
